Reference: the supplement of paper PMC3334620
Over roughly 33,000 sequences, “E-score (-0.5 to 0.5)” has its median near -0.041; the highest 2% begin near 0.37. This is one part of the list.

biological target: T1, Ecm22 (UniProt Q05958); experiment: PBM E-score (8-mer binding enrichment) (E-score (-0.5 to 0.5)); higher = stronger / more preferred TF binding; most listed sequences are background and not binding sites; conditions: protein concentration: 200 nM; construct: GST-full length
T1 sequence: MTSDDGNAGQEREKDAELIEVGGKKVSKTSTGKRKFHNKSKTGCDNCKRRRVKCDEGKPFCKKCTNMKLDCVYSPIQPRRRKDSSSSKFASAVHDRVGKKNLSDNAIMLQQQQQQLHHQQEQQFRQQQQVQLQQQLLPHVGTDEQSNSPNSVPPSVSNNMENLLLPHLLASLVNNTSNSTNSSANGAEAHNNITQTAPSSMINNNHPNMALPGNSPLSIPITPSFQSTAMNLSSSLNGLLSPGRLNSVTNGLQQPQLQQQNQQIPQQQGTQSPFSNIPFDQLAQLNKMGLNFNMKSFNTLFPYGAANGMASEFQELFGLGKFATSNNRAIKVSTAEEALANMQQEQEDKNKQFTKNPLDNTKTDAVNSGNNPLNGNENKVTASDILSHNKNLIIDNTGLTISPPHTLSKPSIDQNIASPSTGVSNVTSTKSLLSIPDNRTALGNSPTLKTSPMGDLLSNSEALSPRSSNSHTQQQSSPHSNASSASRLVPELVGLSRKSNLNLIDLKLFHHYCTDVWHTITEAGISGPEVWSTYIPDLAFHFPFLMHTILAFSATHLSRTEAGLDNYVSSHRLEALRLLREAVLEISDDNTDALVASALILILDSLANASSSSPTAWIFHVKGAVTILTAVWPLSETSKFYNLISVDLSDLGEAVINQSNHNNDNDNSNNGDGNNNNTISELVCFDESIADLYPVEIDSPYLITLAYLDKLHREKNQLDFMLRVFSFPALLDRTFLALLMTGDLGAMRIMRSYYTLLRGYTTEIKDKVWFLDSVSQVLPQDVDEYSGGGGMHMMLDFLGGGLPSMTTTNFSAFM
Summary of the method: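 E-scores (a modified Wilcoxon-Mann-Whitney statistic) were assigned by the Universal PBM Analysis Suite to every ungapped eight-base word pooled with its reverse complement. The input came from universal all-10-mer Agilent arrays made double-stranded by primer extension and probed with GST-tagged yeast transcription factors at about 100-200 nM. Fluorescent anti-GST detected bound protein, and masliner normalised the scans.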

Sequence	PBM E-score
CGGAGGAG	-0.134
ACGCTCGG	0.21
AACGCCCT	-0.00177
CAACAGCG	-0.152
CAAATCGC	-0.151
CTTAAGTC	-0.146
GAGGGACC	0.00761
CAAGGAGA	-0.262
AAAACGAT	0.257
AGCGACAT	0.214
CCGAACCG	0.12
ATTATACA	0.0593
GCCGGCAC	-0.079
GGATGCAC	-0.164
ATTCGAAA	0.0727
AGTTGGTC	-0.129
GGGGCCAC	-0.218
ATGACAGA	-0.0246
ATTACAGG	0.045
ACATATAA	-0.118
GTTAGCCA	-0.0509
AACTACGT	0.161
TAGTGCAA	-0.0232
CATAACGA	0.0768
ATGTGTGC	-0.252

Sequence	PBM E-score
CTTGCGGA	0.0958
CGCAATAA	0.117
ACGTAACA	-0.00639
ATCTAAGA	-0.199
GGACCGAA	0.215
ACGGCCGT	0.26
AAGGGAAC	0.164
ATAAAAGG	-0.132
GAAATTTA	0.177
GGAAAGAC	-0.173
AGTCCAAG	-0.189
TCTATTAA	-0.0219
GCAATACC	0.0155
GCGACCTA	0.115
AGGACAAC	-0.109
CCTAAGCG	0.183
GCTGGTGA	0.0251
CCGTGCCA	-0.29
CACGAAAC	0.147
GGCAAAAC	-0.29
CCTCCAAC	-0.238
CACAGAAG	-0.195
ACGATATA	0.314
TCATCCGA	0.245
CCGACGCG	0.218

Sequence	PBM E-score
TAGCAGCA	-0.154
ACATGCTC	-0.0921
TAATGGGA	-0.343
ATATAAGC	0.0914
CGGGCTTC	-0.0188
ACAGGAAC	0.0912
TTCATAAA	-0.0521
GGCGACGA	0.0273
AAATGCGA	0.222
ACGTGGCA	-0.186
AGGTTGTA	0.101
ACCCACGG	-0.212
CCGCCTCG	0.299
CAATTGTC	-0.06
ACACTACG	0.0807
ATCTCGGA	0.203
GCATTGTA	-0.23
GACTTATA	0.196
AGTGTCGA	0.0924
AATGTCGA	-0.0242
GGAAGAAC	0.143
CGACGACA	0.259
AGGAGTCA	-0.105
ACCACGGC	-0.209
CGTTCGAG	0.219

Sequence	PBM E-score
ACGACTAC	0.333
GCTGTGAC	0.0827
TCTGTTCA	-0.144
CTATAGGA	-0.138
ATCCTCCA	-0.0995
ACACCCCA	-0.198
CAACAGTG	-0.121
GAATTATA	0.123
ACTATGAG	-0.208
CGATTGAG	0.189
CTACTACA	-0.0211
GCCAGAGC	-0.224
CCCGCCAA	-0.0941
GGCGCAAA	-0.0854
AGCCCAAA	-0.169
CGGGCGGC	-0.0837
ACAGCAGT	0.044
CGAAGCGA	0.278
AAACTCAA	0.0502
ATGTTTCC	-0.0668
AGAGGGAC	-0.0884
CGTGGGTC	-0.168
AAGTGACT	-0.103
CCTGGTGA	-0.168
CAATCTCC	-0.234

Sequence	PBM E-score
AACCCGAC	0.183
CTACTCAC	-0.223
ATTCGGGC	-0.00721
ACTCCACA	-0.125
AACGGTTG	0.132
ACGAATTA	0.339
AGACGGAA	-0.0621
GAGTATAA	0.127
TCCCTAAA	-0.00662
AAAGTGAA	-0.0975
GTAATTTA	0.177
GCGCGGAC	-0.0907
ACCTGAAT	0.0533
CCCAATGC	-0.289
CCCTGGTC	-0.227
ACCAAAGG	-0.164
CGTTTTAA	0.267
CTAGATTC	-0.0775
ATCGAACA	0.0719
CTAACTCA	-0.287
GCGTTCGA	0.0441
ACATTTTA	0.037
CGGATGGC	-0.108
ATGAAGAA	0.00943
GCTCATAC	0.0202

Sequence	PBM E-score
GAAAGCCC	0.0946
AGTCTATG	-0.308
CTGCGGTC	-0.0324
TATGACGA	0.124
ATCAAGCA	0.105
CCAGTATA	-0.0943
ATCCATAG	-0.156
CCTTAAAA	-0.226
GGCTGGTA	-0.158
AGTTGTGC	0.136
AGGTGCAG	-0.235
CCATCGGG	0.0772
CCGATTCC	-0.00271
ATACTGGC	-0.211
GAATTCTC	0.204
AGAGCCCA	-0.15
AACGTGGT	0.0471
GATCCACC	-0.149
AGCTTATG	-0.0352
CTGGCAAG	-0.302
CAGTAGAG	-0.141
ATTATCTC	0.0827
AGAGCCGG	-0.129
CGGTTCGA	0.268
TAAGGAAA	-0.0904

Sequence	PBM E-score
ATTGTTAC	0.0823
GGTGCAAC	0.0204
GAGTCGGA	0.0868
CACGACCG	0.0498
AGGACGCG	-0.0792
ACGCCGAG	0.159
AGCTCGCG	0.249
AAAAGACG	-0.0186
ACAAGTTA	-0.0302
ACGTCTGC	-0.158
ATTGCACG	0.146
CTCCCTGC	-0.278
GAGGACGA	0.167
ACACCTCG	0.169
TGATGAAA	-0.103
GCAGGAAA	-0.0907
CTCAGTTA	-0.187
CCGGTAGC	-0.261
AATTAGTA	0.0162
AGTCTCTA	-0.0503
CGAAGAAC	0.135
CGGTCGAG	0.132
GTGCGAGA	0.248
CTCTCTCC	-0.127
CCCTATGA	-0.194

Sequence	PBM E-score
CCATTGCG	-0.109
CTCATTAA	-0.231
TCATTGGA	-0.0702
AAGGCACT	-0.111
TGAGACAA	-0.105
GAACCATA	-0.0553
CCTTGAAA	-0.0768
ATGCGGTG	-0.176
ATAAGCAA	-0.0928
TGAGTACA	-0.0329
AACACTAT	0.129
AGTGTCAC	-0.0644
CCGTGCAA	0.0357
AGAGTAAG	-0.271
GGATGACC	-0.138
AGCAGCAC	-0.12
TACAACTA	-0.103
ATGAAACA	0.0589
CTGCTGAA	-0.183
AGGGGTCG	-0.0111
CTGTCGTC	0.161
GACCAGCC	-0.173
CAGCGTTC	-0.025
GCATGGAA	-0.0545
AATGTATA	0.244

Sequence	PBM E-score
ACGTGACA	0.183
ACTACTCT	-0.173
GACCGAGC	0.27
ACTGGACA	-0.105
GTCCGTCA	-0.131
AGCGTCTA	-0.273
ACACCGAA	0.061
AGAAACCT	-0.26
AAAATGGA	-0.00366
CTTCAAAA	-0.206
CAGTCAGC	-0.199
CATGTACG	0.399
GAATCGAA	0.11
ACTCAATA	-0.0603
GCTTTATA	-0.0972
GACCGACA	0.237
GCAATAAC	-0.0825
ATAGTATA	0.211
AATCGTAC	0.458
AATAGGAC	-0.0712
GTGAGAAA	-0.105
CCGCCAAC	-0.163
CCACGGGG	-0.209
AAAGAGTT	-0.264
AAACAACC	-0.0595

Sequence	PBM E-score
GTTAGAAA	-0.127
GCCGTACA	0.371
CCCGCATA	0.169
AGAGAGGA	-0.19
CTTAAGCA	-0.191
ATTTCTGC	0.178
AGCCAATG	-0.141
ACCGTTAG	-0.0284
CCTATTAA	-0.0475
AATATGAC	0.0385
ACTCGTGG	-0.114
CTCTCAGA	-0.235
CAGATAAC	-0.159
GAGGAGGA	-0.00253
CCCTGCCG	-0.219
AATTATTG	-0.0942
ACCGGTAA	-0.0467
GTGTCGTA	0.445
CCCGGACA	-0.00282
TAACGTAA	0.151
ATCCAGCC	-0.107
CTTATGTA	-0.00821
ACACGCGA	0.191
TAGATTCA	0.061
CAACTAGC	-0.0218

Sequence	PBM E-score
GTGCGTCA	-0.239
CTTTTAAC	0.053
GGTACGCA	0.263
GTGCCGTA	0.33
CGGACAGA	0.218
CCGAACTA	-0.0209
CACGAGAC	0.0819
ATTCAGAG	-0.0403
GTCGGTCA	0.258
ACGCCTAG	-0.107
CGGGTCAC	0.16
AAACGGTT	0.262
CGTATCAG	0.338
AGAATCGA	-0.00414
AAAGTCCG	-0.00499
ACCTCCAT	-0.0854
CCCGTTCG	0.196
AGACTGAA	-0.19
AACTTGGT	0.0861
AAAAAGCA	-0.0954
GAGTTCAC	0.0701
TACCAATA	0.0209
AAAGGATG	0.00531
AAAGTCAC	0.0189
CCACATAG	-0.14

Sequence	PBM E-score
TCACTACA	-0.0736
CCCCCTAA	-0.094
CTTAGCGC	0.0883
CAGTAAGG	-0.211
AAACGAAT	0.453
AGAACGAC	0.425
ACCGTGCT	-0.228
GGACCGCC	-0.107
TCGGATCA	0.217
CTCCTGAC	-0.315
CGCTCGAC	-0.0268
AGTATTGG	-0.139
CAGGTATG	-0.0672
AAACGTAA	0.194
ATATCACA	-0.196
CACGGGTA	-0.0789
CAAGGGAC	-0.255
AGATGGTA	-0.0824
AGCGTCTG	-0.165
ACCCTTAG	-0.253
ATCGTTCC	0.478
TATTCAGA	0.00759
CTGCTAAA	-0.118
AGTTACAT	-0.262
GCGGGACA	-0.135

Sequence	PBM E-score
CGTGGCGC	0.0496
AATTCCCA	-0.0276
GTTAGAGA	-0.12
AAACTAGA	-0.0931
CTCTACTC	-0.0652
AGAACTTA	-0.0305
CTTTCGAA	0.101
ATAGGTAC	0.205
AGACCATG	-0.252
ACCTAGGG	-0.0682
ATAATACA	0.153
CGAACAAC	0.252
CGTCAGCC	0.152
GATGAACC	-0.0354
ATAGTCCG	0.0396
GATGGGCC	0.0139
AGTCATAG	-0.195
GATGGCTA	-0.0273
TGAACACA	0.083
TAAGAGAA	-0.00589
CCCTTTCG	0.0713
AACTTCAC	0.0636
AGTTCTAG	-0.203
AGGCTAGC	-0.215
AACTGGGG	-0.113

Sequence	PBM E-score
CAGCCAAG	-0.163
ATGTAACG	0.101
AAAGACAC	0.00812
ATACTACC	-0.129
CGCAGCGA	0.18
CGCGCGTC	0.171
ATTGTCGC	0.0503
ATATGAGG	-0.147
AAGCAGTG	-0.186
GGCCACAA	-0.172
CGAAGCCC	0.0749
GAAACGGA	0.256
CGCAGGCC	-0.117
GGGTCCCA	-0.149
CCGGCACG	0.0502
AAAGCTAG	-0.197
CTCGAGGC	-0.0703
CGGCTAAG	-0.132
CCTCTATA	-0.0379
